The values below come from PubChem BioAssay AID463173 (ICCB-Longwood Screening Facility, Harvard Medical School, 2010).

Hit rate of the full screen: of about 52,000 compounds, about 4,300 (8.3%) were called active. Rule as the data show it: active = survival mostly below about 52% (no sharp cut-off); inactive = mostly above about 56%. The list shows a part of the results.

The subject of the assay is DeltatarO mutant. The experiment in a line: growth inhibition of S. aureus wild type versus tarO mutant, primary screen, teichoic acid synthesis inhibitors, RN4220, OD600 (AID 463173). Conditions: OD600, 18 h, hits give low values; concentration not given here unless noted.
For `COc1ccc(NC(=O)CCc2nc(C3=CCN(Cc4cccc(C)c4)CC3)no2)c(OC)c1`, the survival was inactive: 91%. Under `Cc1cc(OCC(=O)N2CCN(CCc3ccncc3)CC2)cc(C)c1Cl` stands active: 57%; under `Cc1cccc(-n2c(/C=C\c3cccc(Br)c3)nc3ccccc3c2=O)c1`, inactive: 113%; under `CCC1(CC)C(=O)NC(=NCc2ccc(OC)cc2)N(C)C1=O`, inactive: 90%. With `CC12CNCC(C)(CN(Cc3ccccc3)C1)C2`, the survival was inactive: 85%. Under `Cc1ccc(Cn2cccc(C(=O)Nc3ccc(C)c(Cl)c3)c2=O)cc1` stands inactive: 83%; under `O=C1NC(=O)N(c2ccc3c(c2)OCO3)C(=O)/C1=C/c1ccsc1`, inactive: 97%; under `Cc1cccc(CNCCc2ccccc2)n1`, inactive: 72%.

For `Cc1ccccc1-c1nc2ccccc2c(=O)n1C`, the survival is inactive: 93%.

`Cc1ccc(CNC(=O)CCCn2c(=O)c3sccc3n(CC(=O)Nc3c(C)cccc3C)c2=O)cc1`: the survival is inactive: 97%. Turning to `COc1ccc2c(c1OC)C(=O)OC2C1c2cc3c(cc2CCN1C)OCO3` (stereo not drawn), the survival is inactive: 69%.

As to `CNCC(C)c1ccccc1` (stereo not drawn), the survival was inactive: 99%. On to `CCc1cc2c(s1)NC(=O)CN=C2c1cccs1`, for which the survival is inactive: 57%. On to `OC1(c2ccc(F)cc2)CC2CCC(C1)N2Cc1nnnn1Cc1ccco1` (stereo not drawn), for which the survival is inactive: 96%. With `C1CCCN(C2CCNCC2)CC1` the figure was inactive: 85%; with `Cc1nnc(NC(=O)c2cccn(Cc3ccccc3)c2=O)s1`, inactive: 86%.

`CCCc1nc(SC)ncc1C(=O)Nc1ccc(Cl)cc1C(=O)c1ccccc1`: the survival was inactive: 83%. Under `O=C(COc1ccccc1Cl)N1CCN(CCc2ccccn2)CC1` stands inactive: 110%.

For `CCOc1ccc(CN(CCc2ccc3c(c2)OCO3)Cc2cccc(Br)c2)cc1`, the survival was inactive: 55%. With `O=C1C=C2C3CCN(CC3)C2CC1` (stereo not drawn) the figure was inactive: 78%; with `O=c1c2ccccc2nc(CN2CCOCC2)n1-c1cccc(C(F)(F)F)c1`, inactive: 89%; with `COc1ccc(NC(=O)CN2C(=O)CN=C(c3ccccc3)c3ccccc32)c(OC)c1`, inactive: 99%.

With `COc1ccccc1CN1CCN(C(=O)COc2cccc(C)c2)CC1`, the survival is inactive: 162%. Under `Cc1ccccc1-n1nc(C)c2c1NC(=O)CSC2c1ccccc1C(F)(F)F` (stereo not drawn) stands active: 39%; under `Cc1oc2cc3oc(=O)c(CCC(=O)N4CCCCC4)c(C)c3cc2c1C`, inactive: 99%.

Consider `O=C(COc1ccc2ccccc2c1)N1CCN(Cc2ccncc2)CC1`, for which the survival was inactive: 67%. On to `CCOc1ccc(CN(CCc2ccc3c(c2)OCO3)Cc2ccc(CC)cc2)cc1`, for which the survival was inactive: 47%.

Consider `CCC1CN(C)CCC1(O)c1ccccc1` (stereo not drawn), for which the survival was inactive: 81%. Under `OCC1(CO)COC(c2cccnc2)N1` (stereo not drawn) stands inactive: 73%. With `CCc1nc2ccccc2c(=O)n1-c1cccc(OC)c1` the figure was inactive: 91%; with `O=C(COc1cc(Cl)ccc1Cl)Nc1ccc(Cl)cc1C(=O)c1ccccc1`, inactive: 69%. Under `Fc1ccccc1CN1CCN(Cc2ccccc2F)CC1` stands inactive: 79%. Regarding `Cc1cccc(CN2CC=C(c3noc(CCC(=O)Nc4ccc(C)c(F)c4)n3)CC2)c1`, the survival is inactive: 89%. Under `O=C(COc1ccccc1F)N1CCN(Cc2cc(=O)n3nc(-c4ccccc4Cl)sc3n2)CC1` stands inactive: 107%; under `Cc1ccc2c(c1)C(Cc1nc3ccccc3c(=O)n1-c1ccc(Br)cc1)C(=O)N2` (stereo not drawn), inactive: 73%.

As to `N#CSCC(=O)N1c2ccccc2CCc2ccccc21`, the survival is active: 3%. Under `Cc1ccc(-n2c(=O)[nH]c3ccc(Br)cc3c2=O)cc1` stands inactive: 90%; under `O=C(Cn1ncc2c([nH]c3ccccc32)c1=O)NCCCN1CCN(c2ccccc2)CC1`, inactive: 75% [screened at 18.75 µg/mL (by protocol)]; under `CCOc1nc(NCc2ccco2)nc(N2CC3CC(C2)c2cccc(=O)n2C3)n1` (stereo not drawn), inactive: 97%. Under `COc1ccc(NC2=NCC(C)S2)cc1` (stereo not drawn) stands inactive: 70%.

As for `O=C(Nc1ccc(F)c([N+](=O)[O-])c1)c1cccn(Cc2ccccc2)c1=O`, the survival was inactive: 115%. Under `Cc1cccc(OCC(=O)N2CCN(CCc3ccccn3)CC2)c1` stands inactive: 48%; under `O=C(COc1ccc(C=C2C(=O)NC(=O)NC2=O)cc1)NCC1CCCO1` (stereo not drawn), inactive: 70%; under `CCC(CC)C(=O)NC1CCSC1=O` (stereo not drawn), inactive: 82%. With `CC(C)(C)c1nc(N2CCN(C(=O)c3ccco3)CC2)c2nnn(Cc3ccccc3Cl)c2n1` the figure was inactive: 90%; with `N#CC1=C(N)Oc2c(c(=O)oc3ccccc23)C1Cc1ccccc1` (stereo not drawn), inactive: 99%.

Regarding `CCCCCCc1cc(O)c2c(c1)OC(C)(C)C1=C2CCN(C)C1`, the survival was inactive: 116%. With `O=C1NC(=O)N(Cc2ccccc2)C(=O)/C1=C/c1ccc2c(c1)OCO2` the figure was inactive: 100%. Under `CCCOc1ccc(C2SCC(=O)Nc3c2c(C)nn3-c2cccc(C)c2)cc1OC` (stereo not drawn) stands active: 41%. For `CN1C(=O)C(=C/C=C/c2ccccc2)C(=O)N(C)C1=O`, the survival was inactive: 99%. With `Cc1cccc(Cn2cccc(C(=O)Nc3ccc4c(c3)OCCO4)c2=O)c1`, the survival is inactive: 91%. Under `CCN(CC)CCSc1nc2ccccc2c(=O)n1-c1ccc(Cl)cc1` stands inactive: 148%. Under `CCOc1ccc(NC(=O)Cn2cc(C(=O)c3ccccc3)c3ccccc32)cc1` stands inactive: 63%; under `CC(C)C12CN3CC(C(C)C)(CN(C1)C3c1ccccn1)C2=O` (stereo not drawn), inactive: 80%; under `COC(=O)C1(O)c2ccccc2-c2ccccc21`, inactive: 71%. Under `CN(C)S(=O)(=O)c1ccc(N2CCNCC2)cc1` stands inactive: 84%. Take `COc1ccc(C)cc1NC(=O)N(Cc1ccc2c(c1)OCO2)C1CCN(Cc2ccccc2)CC1`: the survival was inactive: 94%.

On to `CCOc1ccc(CN(CCc2ccc3c(c2)OCO3)Cc2cccc(OC)c2)cc1`, for which the survival is inactive: 44%.

In the case of `Cc1cccc(-c2nc(CN3C(=O)CN=C(c4ccccc4)c4ccccc43)c(C)o2)c1`, the survival is active: -2%. Under `Cc1ccc(-n2c(/C=C\c3ccc(F)cc3)nc3ccccc3c2=O)cc1Cl` stands inactive: 90%.

Take `Cn1c(=O)n(C)c2cc(CNCCc3ccc(F)cc3)ccc21`: the survival was inactive: 75%. Under `Cc1ccc2nc(NC(=O)c3cccn(Cc4ccc(Cl)cc4)c3=O)sc2c1` stands inactive: 83%; under `N#CSC12CN3CN(CN(C3)C1)C2`, inactive: 88%.
